Source: paper PMC11272940, “UNC-45 assisted myosin folding depends on a conserved FX3HY motif implicated in Freeman Sheldon Syndrome” (Nature Communications, 2024)
These are yes or no findings as the source states them, for the method shown. Some results given as binding are weak or reduced against the parent protein; the word gives no strength. Values belong to the binder of their own block, whether it stands above or below them.

Tests used:
[1] = biological target: T1, 547–588 myosin peptide (MHC-B) (C. elegans, UniProt P02566 547-588); experiment: fluorescence polarisation; 2 μM N-terminally fluorescein-labelled peptide; UNC-45 from 180 μM (UNC-45B from 170 μM) diluted 1:1; 25 mM Tris pH 8.0, 150 mM NaCl; both purified
T1 construct: also called native peptide; identified myosin ligand; source: synthetic peptide
T1 peptide (looked up): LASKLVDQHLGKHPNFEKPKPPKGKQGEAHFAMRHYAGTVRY

[2] = biological target: T2, fluorescein-labelled C. elegans myosin peptide Y582F (C. elegans); experiment: as above
T2 sequence (peptide, fluorescein on the N-terminus): AHFAMRHFAG

[3] = biological target: T3, fluorescein-labelled wildtype C. elegans myosin peptide … (C. elegans); experiment: as above
T3 sequence (peptide, fluorescein on the N-terminus): AHFAMRHYAG

[4] = biological target: T4, Full length C. elegans UNC-45 (from E. coli) (C. elegans), G5EG62; experiment: cross-linking; XL-MS of the in vitro reconstituted UFD-2:UNC-45:myo^UF complex; 0.25 mM DSS, 20 mM HEPES pH 8.0, 150 mM NaCl, 25 °C, 30 min; both purified; settings: remark: other sources report otherwise
T4 chain: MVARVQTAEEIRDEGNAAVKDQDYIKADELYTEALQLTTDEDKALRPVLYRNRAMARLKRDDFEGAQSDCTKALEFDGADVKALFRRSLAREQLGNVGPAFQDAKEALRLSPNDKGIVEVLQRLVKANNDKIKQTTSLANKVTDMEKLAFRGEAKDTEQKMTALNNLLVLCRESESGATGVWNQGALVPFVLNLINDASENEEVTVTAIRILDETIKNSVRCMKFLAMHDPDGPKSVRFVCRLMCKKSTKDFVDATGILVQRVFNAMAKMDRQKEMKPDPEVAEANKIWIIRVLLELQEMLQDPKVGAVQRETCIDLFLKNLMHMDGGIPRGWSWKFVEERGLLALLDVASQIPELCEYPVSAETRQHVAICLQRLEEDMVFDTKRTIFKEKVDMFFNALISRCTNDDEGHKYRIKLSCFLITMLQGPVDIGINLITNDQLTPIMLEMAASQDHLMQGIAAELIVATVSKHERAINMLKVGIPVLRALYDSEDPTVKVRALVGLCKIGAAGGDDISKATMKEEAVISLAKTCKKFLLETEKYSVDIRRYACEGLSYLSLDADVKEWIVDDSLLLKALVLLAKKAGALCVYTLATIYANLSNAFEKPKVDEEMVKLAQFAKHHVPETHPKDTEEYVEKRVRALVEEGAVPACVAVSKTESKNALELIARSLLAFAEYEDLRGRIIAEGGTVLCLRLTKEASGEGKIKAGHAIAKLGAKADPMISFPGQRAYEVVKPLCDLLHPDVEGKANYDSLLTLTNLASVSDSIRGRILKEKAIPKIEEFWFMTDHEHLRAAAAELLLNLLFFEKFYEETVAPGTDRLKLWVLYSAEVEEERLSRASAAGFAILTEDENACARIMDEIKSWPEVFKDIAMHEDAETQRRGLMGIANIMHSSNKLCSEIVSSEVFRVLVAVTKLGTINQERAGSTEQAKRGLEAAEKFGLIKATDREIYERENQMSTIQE

binding [1]: binds weakly | binding [2]: binds weakly | binding [3]: binds weakly
B1: Full length C. elegans UNC-45 (from E. coli) (natural protein, UniProt G5EG62 1-961, looked up)
chain: T4 chain
notes: UNC-45 chaperone, C. elegans; The C-terminal Strep tag is stated for the peptide spot assay; also called wildtype UNC-45; purified UNC-45; source: E. coli, purified (HisTrap or StrepTrap, SEC); not shown: Strep, C-terminal, kept

binding [4]: binds
B2: UFD-2 ubiquitin ligase (C. elegans), Q09349 1-984 (enzyme)
chain: MIEDEKAGLQPMDISDASVFFFQADVESKDFLTSLFDCEGKSDDRMLRYADAIIDVQNLNFDVSPQCLQSNIAEIITKFVLLSQDGSRRGLSRSFNFIDPDIIAGCREEDAIEFLLINFVRCHHELGKSGTSNCYKKTLESTRKAVFSVFVMIQRGYLESQLRSQHASLVFTKRLLEDTVSNVFLRTLVEYLASTDECDEDAITETFNPIFGILRSGIICQRFEDNKDEIVRQILRVMNLLLSIRLPSNGPRPLSNLLVNREDFLPTPSEKIQGREFGLMSFLGPFFSYGLESSARRPNHRVFVDCEEDARKYDGSVNTEQKLYFQRMDPIRTMLHQLMLPLASDQGSRNKTLRWIATIISTNDIRTRSHYDPSDVLCDHYMTNFLSVMYMFSEKIDLSKIIVDYPFLPSSLINISKETRLKMDESGAVAFASQFADRPDEYHFSTVCFFLTIAAQRLVIPPLMNQISEYSRHLKELKHKINALKEKLNTVSGFERAEVEKKLNYETEHWKLMSRHLLCVKTQAQDPALMASSMDFVDKQMKFILNLLCDNLDLLGDDSQLPTEVSQMFCALPEYFLEDALDFYIFAISNGMKLLMERNADWISRLTVLFTQYHYIKSPFLVSKLVRVLSSIQPPLWFNVVRLRMAQENLLMCMIKFYSDFEDNGDFYEKFNVRGNIQYMLEKMEEDMFYKGKFMDMARECGAEFIRFVNMVINDATWCIDESLSGLKSIHDVEKKMANKVEWDNTDQEIRNQDLGVYEEAKRKVKGWLGTAKSNLKLLLSITVNSPEPFRTPVLGERLAAMLNHNLSQLIGSKASELKVKDPRSYGWEPREFVSLLISIYLKLNMPAFVKYIAYDERTYSPEFFHNAIECMRKNSIVGFSQLESFEHLAEDVKKEYEAKAELEEEYDDVPEEFKDPIMDAIMVDPVKLPSGHVMDRAVIERHLLSTPNNPFNRAPLSHNELSPDSELKAKIQEWICQKRNSKK
